The values that follow come from the supplement of paper PMC8728848.

The list shows a part of the results.

For assay [1], the target named is Neu5Gc(a2-8)Neu5Gc(a2-6)Gal(b1-4)GlcNAc. Put plainly: glycan array binding signal (z-score within array); higher = stronger binding. The settings on record: glycan notation: IUPAC condensed, linker removed. Put shortly: (§1)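 Glycan array data were curated from 3228 arrays in the Consortium for Functional Glycomics database and kept only where the protein sequence was available. Glycan names were converted to IUPAC-condensed notation, and columns mapping to the same glycan were averaged. The binding signal is a within-array Z-score, averaged across arrays of the same protein sequence at different concentrations or buffers and across linkers. Negative Z-scores can be read as non-binding.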

In assay [2] the target is Neu5Gc(b2-6)Gal(b1-4)GlcNAc. Described as above. The settings on record: glycan notation: IUPAC condensed, linker removed. Put shortly: as §1

B1: GS7807H-bfa-490-18-490 (Bacteroides fragilis) (protein)
chain: GNLEEMNIDPDNATQTHPKLLLTQICMNAFKRGTDGMYATKKVIQADGESADQYYKWTRGSFGYYDNLRNVQKMGEEAERVNAPVYTALTKFFRAYYFYELTLRFGDIPYSQALKGEKEEIYTPEYDAQEDVFAGILQELREADEILANDASVIDGDIIYNGNSTQWRKLINSFRLKVLMTLSNHTTVGNINIASEFKNIATNSPLMNSLADNGQLVYLDQQGNRYPQFNAQWSGYYMDDTFIQRMRERRDPRLFIFSAQTNKGKTEGKPIDDFSSYEGGDPAAPYSDAIIKVSEGTISPINDRFRTDPIVEPTMLMGYAELQQILAEAVVRGWISGNAQTYYEKGIRASFSFYETHAKDYAGYLNENAVAQYLKEPLVDFTQASGTEEQIERIIMQKYLVTFYQGNWDSFYEQLRTGYPDFRRPAGTEIPKRWMYPQGEYDNNGTNVETAITRQFGAGNDKINQATWWQKKS
Turning to B1, the “glycan array binding signal (z-score)” value in assay [1] was -0.458; in assay [2], -0.174.
